Our source for the switch fluorescence ratio values is the supplement of paper PMC10126150.

Sequences with one replicate were seen in a single cluster, so their values are uncertain.
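Also: ATP exposure 15 min at 22 °C before imaging.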

The subject of this data set is ATP. In words: switch fluorescence ratio, 500 uM ATP over buffer (Cy3 cluster intensity, sum of 5 cycles each) (fold (ratio)); higher = stronger signal-on switching upon ATP binding; sequences stand for … in TCGTCGGCAGCGTCAGATGTGTATAAGAGACAGTTTTTTTTTTTTTTTTTTTTTTTTT…TC. Conditions: aptamer strand: ATP DNA aptamer (quencher-CACCTGGGGGAGTATTGCGGAGGAAGG + anchor), 100 nM annealed; ATP concentration: 500 uM; one replicate. In a few lines: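 The quencher-labelled ATP aptamer, at 100 nM, was annealed to Cy3-labelled switching-strand clusters on a modified Illumina MiSeq flow-cell. The clusters were imaged in selection buffer, then after 15 min with 500 uM ATP at 22 °C, and this buffer/ATP cycle ran five times with NaOH stripping and re-annealing between runs. Per-cluster fluorescence ratios, summed target-cycle over summed buffer-cycle Cy3 intensity, were averaged per switch-domain sequence. Clusters outside 100-1000 RFU were excluded.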
On to CCTCTGATCG, for which the switch fluorescence ratio stood at 1.34.

As for GGGTCGCAGT, the switch fluorescence ratio is 1.04.

As for CATGAAGCGC, the switch fluorescence ratio is 1.04.

On to CATCGACGAG, for which the switch fluorescence ratio was 1.05.

Turning to CCTCTATATA, the switch fluorescence ratio was 2.09.

TCGGGGATA: the switch fluorescence ratio is 1.02.

Consider GCAAGCCGCG, for which the switch fluorescence ratio turned out to be 1.02.

On to CAGGGATCAG, for which the switch fluorescence ratio was 1.02.

With TTAAGTAGCA, the switch fluorescence ratio was found to be 1.04.

Take TACACTTCGT: the switch fluorescence ratio stood at 1.05.

Turning to TATTCCCACG, the switch fluorescence ratio worked out at 1.03.

As to ATTTTAGGTG, the switch fluorescence ratio turned out to be 1.2.

Take CGTCGCCTGT: the switch fluorescence ratio was determined as 1.02.

In the case of GGCTATAAGA, the switch fluorescence ratio came out at 1.

In the case of TGATGTTCAT, the switch fluorescence ratio was found to be 0.994.

As for ATTCGTGGCA, the switch fluorescence ratio turned out to be 1.01.

As to TAGATTACTT, the switch fluorescence ratio turned out to be 0.974.

With CATCCTTGTT, the switch fluorescence ratio is 1.

As for AATAATGAAC, the switch fluorescence ratio is 1.03.

Take ATCAGTTCGG: the switch fluorescence ratio is 1.01.

For the sequence CCTCATGTT, the switch fluorescence ratio stood at 1.06.

For ACGTAGCAAG, the switch fluorescence ratio came to 3.51.

Take GCCTCATTCG: the switch fluorescence ratio amounted to 0.993.

As for ACTATAGTAC, the switch fluorescence ratio came out at 1.04.

In the case of ACGTAATATT, the switch fluorescence ratio was found to be 1.25.

Consider TGTCTTCTCT, for which the switch fluorescence ratio stood at 1.

Turning to AACTAAAGGG, the switch fluorescence ratio worked out at 1.11.

Take GGGTATTCTT: the switch fluorescence ratio came out at 0.977.

With TGCGGACCTA, the switch fluorescence ratio worked out at 1.02.

As for TATATCGGAT, the switch fluorescence ratio worked out at 1.02.

With GTAAAATTAT, the switch fluorescence ratio came to 1.02.

With GAGCGATGTG, the switch fluorescence ratio amounted to 1.03.

On to AGCCCGCCAC, for which the switch fluorescence ratio is 1.72.

With TGAAATCTAA, the switch fluorescence ratio was 1.

In the case of AGATTGACCT, the switch fluorescence ratio amounted to 1.28.

For GAAGAACTAT, the switch fluorescence ratio turned out to be 0.996.

In the case of AGGTGGTTCT, the switch fluorescence ratio worked out at 0.954.

Consider TATTGATTAT, for which the switch fluorescence ratio was found to be 0.977.

For CCCAGAGTTG, the switch fluorescence ratio is 1.25.

As for CGACGATAAG, the switch fluorescence ratio came out at 1.01.

Consider CCAGAGCGAG, for which the switch fluorescence ratio was 2.45.

Take CAACGAGCG: the switch fluorescence ratio amounted to 1.01.

For the sequence CACGTCAGTT, the switch fluorescence ratio worked out at 1.07.

Regarding ATCATACTGC, the switch fluorescence ratio amounted to 1.06.

TATTAGAGAG: the switch fluorescence ratio came out at 1.01.

Regarding CTAACCCGCG, the switch fluorescence ratio amounted to 1.11.

Turning to AAAACCTGCG, the switch fluorescence ratio amounted to 1.22.

CAGAAAGTTC: the switch fluorescence ratio was determined as 1.08.

For TACATGTG, the switch fluorescence ratio came to 0.983.

As to GCGAATTCGA, the switch fluorescence ratio was found to be 1.01.

Regarding GGGCTTGTTA, the switch fluorescence ratio stood at 0.991.

In the case of ACACCGTCAT, the switch fluorescence ratio amounted to 1.11.

With AGGGTCGCTT, the switch fluorescence ratio is 1.01.

As for CAGAAGAGTA, the switch fluorescence ratio stood at 1.01.

Take GGTGATTCCC: the switch fluorescence ratio stood at 0.984.

Take TTGAAGCTCG: the switch fluorescence ratio was 1.06.

Turning to TACATTCAAT, the switch fluorescence ratio was determined as 1.05.

On to GACTGGG, for which the switch fluorescence ratio stood at 0.98.

For CAAGGTGTTT, the switch fluorescence ratio came to 1.01.

Regarding CATTTGGTA, the switch fluorescence ratio worked out at 0.986.

For the sequence ATAGGACGC, the switch fluorescence ratio is 1.01.

Take AGGAGCGCCC: the switch fluorescence ratio amounted to 0.965.

On to GCTGTAATGT, for which the switch fluorescence ratio stood at 1.03.

With AACACTTGGC, the switch fluorescence ratio was 1.09.

Consider GCCTTGCATT, for which the switch fluorescence ratio was 1.07.

GCGCCCA: the switch fluorescence ratio amounted to 0.997.

For TTCTATTGGG, the switch fluorescence ratio was found to be 0.993.

Consider TACGTCGGCG, for which the switch fluorescence ratio was 0.991.

With CGTACGTAG, the switch fluorescence ratio stood at 1.03.

Take CTCATTCAGT: the switch fluorescence ratio worked out at 0.965.

Take CCCTAGTCCA: the switch fluorescence ratio amounted to 1.03.

Consider CGTATGTTTC, for which the switch fluorescence ratio was found to be 1.04.

Regarding GTTTTCAGTG, the switch fluorescence ratio came out at 1.02.

Turning to TTTGTTGTGA, the switch fluorescence ratio stood at 0.982.

On to GTTGCTCGTG, for which the switch fluorescence ratio was determined as 0.996.

As to TCGACTTAGT, the switch fluorescence ratio was 0.994.

In the case of ATGGCACTCC, the switch fluorescence ratio turned out to be 1.05.

As for AGTGGATTTG, the switch fluorescence ratio turned out to be 0.986.

For AGTCGGAGGC, the switch fluorescence ratio worked out at 1.08.
